# From article PMC4336329 (PLoS ONE, 2015)
# About 14,000 (4.5%) of roughly 310,000 compounds showed an effect of 50% or more. Effects have a minus sign here. The list shows a part of the results.
# Target: human ether-à-go-go-related gene (hERG) potassium channel (human, UniProt Q12809)
# Test: primary screen, population patch clamp on CHO cells stably expressing hERG
# 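Further: peak tail current of the secondary pulse compared with the same well before compound.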
# Sequence of human ether-à-go-go-related gene (hERG) potassium channel (Q12809 whole entry, looked up): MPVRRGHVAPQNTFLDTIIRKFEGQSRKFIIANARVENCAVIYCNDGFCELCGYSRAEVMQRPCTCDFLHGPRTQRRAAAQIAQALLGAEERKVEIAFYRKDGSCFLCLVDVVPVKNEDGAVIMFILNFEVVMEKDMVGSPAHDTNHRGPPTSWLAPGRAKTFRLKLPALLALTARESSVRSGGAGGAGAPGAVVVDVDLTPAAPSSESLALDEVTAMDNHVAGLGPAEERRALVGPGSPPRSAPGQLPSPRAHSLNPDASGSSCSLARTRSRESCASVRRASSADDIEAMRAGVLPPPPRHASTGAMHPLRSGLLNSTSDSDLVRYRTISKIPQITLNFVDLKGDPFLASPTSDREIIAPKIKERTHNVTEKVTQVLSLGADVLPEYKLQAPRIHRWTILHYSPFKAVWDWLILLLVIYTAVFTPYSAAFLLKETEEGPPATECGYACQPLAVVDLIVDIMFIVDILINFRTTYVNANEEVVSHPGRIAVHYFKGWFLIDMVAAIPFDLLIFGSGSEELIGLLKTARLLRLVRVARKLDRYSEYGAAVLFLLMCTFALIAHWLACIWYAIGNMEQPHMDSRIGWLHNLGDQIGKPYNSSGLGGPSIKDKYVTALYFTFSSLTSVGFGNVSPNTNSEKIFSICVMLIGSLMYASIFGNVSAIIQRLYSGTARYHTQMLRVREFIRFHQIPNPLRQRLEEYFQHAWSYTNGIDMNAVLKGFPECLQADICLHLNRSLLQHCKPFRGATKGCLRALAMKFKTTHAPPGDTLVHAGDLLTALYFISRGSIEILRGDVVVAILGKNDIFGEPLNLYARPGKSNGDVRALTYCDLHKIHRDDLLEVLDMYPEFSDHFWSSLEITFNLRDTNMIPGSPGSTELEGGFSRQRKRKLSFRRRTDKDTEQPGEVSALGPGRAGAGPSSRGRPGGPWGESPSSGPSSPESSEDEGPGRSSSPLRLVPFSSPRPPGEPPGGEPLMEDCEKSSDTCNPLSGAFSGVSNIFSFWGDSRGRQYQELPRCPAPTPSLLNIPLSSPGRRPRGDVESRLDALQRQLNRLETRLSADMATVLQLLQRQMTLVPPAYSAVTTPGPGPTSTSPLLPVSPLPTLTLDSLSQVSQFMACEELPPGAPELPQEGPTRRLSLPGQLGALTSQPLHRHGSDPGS
row,Compound,"hERG current change (%, negative = inhibition) at 10uM"
1,Cl.Oc1ccc(C(c2nnnn2C2CCCC2)N2CCc3ccccc3C2)cc1 (centres unmarked),-17.7%
2,Cl.Nn1cnnc1N/N=C/c1ccc(Cl)cc1Cl,6.34%
3,CCCc1[nH]n(-c2nc3ccccc3s2)c(=O)c1C=NCCCOC,-57.2%
4,CCCC(=O)C1=C(N(C)c2ccccc2)CC(C)(C)CC1=O,12.4%
5,O=C(N/N=C/c1ccc(O)cc1)c1csc2c1CCCC2,-19.7%
6,COc1ccccc1C(=O)NCC(=O)NCc1cc(=O)n(C)c(=O)n1C,21.8%
7,Cc1cccc(C(=O)OCC(=O)Nc2nccs2)c1,5.87%
8,Cc1cc(C)n(Cc2ccc(NC(=O)c3c([N+](=O)[O-])c(C)nn3C)cc2)n1,0.739%
9,CCCN(CCC)S(=O)(=O)c1ccc(C(=O)Nc2nc(-c3ccccc3)c(C(=O)OCC)s2)cc1,0.0347%
10,O=C(OCCN(C1=NS(=O)(=O)c2ccccc21)c1ccc(Cl)cc1)c1ccco1,-35.3%
11,Cc1ccnc(NC(=O)C2CCN(S(=O)(=O)c3cccc(C(F)(F)F)c3)CC2)c1,7.19%
12,COc1ccc(-c2csc(NC(=O)c3ccc(OCC(=O)N4CCOCC4)c(OC)c3)n2)cc1OC,-27.6%
13,CC(=O)NS(=O)(=O)c1ccc(NC(=O)c2ccc3c(c2)C(=O)N(CCC(C)C)C3=O)cc1,14.1%
14,CC1C(=O)N2CCCc3cc(S(=O)(=O)N4CCN(c5cccc(Cl)c5)CC4)cc1c32 (centres unmarked),-5.13%
15,CC(C)Oc1ccc(CSc2ncn[nH]2)cc1,14.4%
16,Cc1ccccc1NC(=O)CN1C(=O)N/C(=C\c2cccn2-c2cccc(C(=O)O)c2)C1=O,16.7%
17,Nc1ncc(-n2cncn2)c(-c2ccccc2)n1,0.822%
18,O=C(CN(c1ccc(F)cc1)S(=O)(=O)c1ccc2c(c1)OCCO2)NCC1CCCO1 (centres unmarked),-6.89%
19,COc1ccc(C2=NS(=O)(=O)N(C)C(C(=O)Nc3ccc(F)cc3F)=C2)cc1,10.1%
20,COc1ccc2cc(C(=O)NCC3CCCO3)[nH]c2c1 (centres unmarked),28.8%
21,Cc1cc(=O)oc2cc(OCC(=O)N3C[C@H]4C[C@@H](C3)c3cccc(=O)n3C4)ccc12,1.52%
22,O=C(O)c1ccc(N/N=C/c2ccc(-c3cccc(Cl)c3)o2)cc1,8.51%

row,Compound,"hERG current change (%, negative = inhibition) at 10uM"
1,COc1ccc(C(=O)NCC(=O)N2CC=C(c3ccccc3)CC2)cc1OC,-37.9%
2,Cc1ccccc1CN(C)C(C)C(=O)NCc1ccccc1 (centres unmarked),17.5%
3,OCCNNC(=S)NC1CC2C=CC1C2 (centres unmarked),-1.57%
4,Cc1c(CCC(=O)NCCC(=O)O)c(=O)oc2cc3occ(-c4ccccc4)c3cc12,0.134%
5,Cc1ccc(-n2nnnc2CNC(=O)c2ccc(Br)o2)cc1C,8.18%
6,Cc1ccc2c(c1)N(CC(=O)NCC1CCCO1)C(=O)C(C)O2 (centres unmarked),0.079%
7,Cc1cccc(CN2CCSCC2)c1,7.05%
8,COCCn1c(SCC(=O)Nc2cccc(C)c2)nnc1C(C)C,2.25%
9,COc1cccc(OCc2cc(C(=O)N3CCN(C)C(c4ccccc4)C3)no2)c1 (centres unmarked),-6.09%
10,O=C(CCc1ccccn1)N1CCCC(Nc2ccc(F)cc2)C1 (centres unmarked),-1.87%
11,CCC1CCCCN1Cc1nc2c(c(=O)n(C)c(=O)n2C)n1Cc1cccc2ccccc12 (centres unmarked),9.75%
12,O=C(NCCCCc1ccccc1)C1CC(c2ccc(C(F)(F)F)cc2)=NO1 (centres unmarked),2.14%
13,CCOCCCNC(=O)C(c1ccccc1)N(Cc1cccs1)C(=O)CNC(C)=O (centres unmarked),3.81%
14,O=c1c2ccccc2ncn1-c1ccc([N+](=O)[O-])cc1[N+](=O)[O-],10.7%
15,N#CC1(c2ccccc2)CCN(C2CC(=O)N(c3ccc4c(c3)OCO4)C2=O)CC1 (centres unmarked),20.1%
16,Cc1ccc(C(=O)NC(=S)N2CC(C)OC(C)C2)cc1[N+](=O)[O-] (centres unmarked),18.4%
17,Cc1cc(C(=O)O)cc(S(=O)(=O)NNC(=O)c2cccs2)c1C,14.1%
18,CCCNC(=O)C(Cc1cccc(Cl)c1)NC(=O)c1ccc(C#N)cc1 (centres unmarked),-11%
19,COc1ccc(CC(=O)OCC(=O)NC(=O)Nc2ccccc2F)cc1,7.77%
20,Cc1nc2cc(NC(=O)Nc3ccc(N4CCOCC4)cc3)ccc2n1C,6.34%
21,COc1cccc(NC(=O)C(C)Sc2nnc(C3CC3)n2C2CC2)c1 (centres unmarked),-67%
22,CCCNC(=O)[C@H](Cc1c[nH]c2ccccc12)NC(=O)c1ccccc1Cl,7.44%

row,Compound,"hERG current change (%, negative = inhibition) at 10uM"
1,O=C(N/N=C/c1ccncc1)c1ccccc1OCc1ccc(Br)cc1,-24%
2,CCOC(=O)N1N=C(C)CC1(O)c1ccccc1 (centres unmarked),-4.74%
3,CC(C)NC(=O)c1cc2nc(-c3ccco3)cc(C(F)(F)F)n2n1,-9.42%
4,COc1ccccc1N1CCN(C(=O)CNC(=O)Cn2cnc3sc(C)c(C)c3c2=O)CC1,-3.28%
5,O=c1[nH]c(=O)n(-c2cccc(Cl)c2)c(O)c1C=NCCN1CCCCC1,7.9%
6,COc1cc2c(cc1NC(=O)C1CCCO1)oc1ccccc12 (centres unmarked),0.857%
7,Cc1nc2nc(SCc3ccc([N+](=O)[O-])cc3)[nH]c2cc1Br,1.02%
8,O=C(CCCCN1CCCCC1)c1ccc2c(c1)Cc1ccccc1-2,-44.8%
9,Cc1ccc2nc(Cl)c(CN(C(=O)c3cnccn3)C3CCCCC3)cc2c1,-24.7%
10,COCCN1C(=O)NC(=O)/C(=C\c2ccc(F)cc2)C1=O,23.4%
11,Cc1ccc(NC(=O)c2cccc(C(=O)OC(C)C)n2)c(Br)c1,-3.66%
12,CCOC(=O)c1c(C)n(Cc2ccccc2)c2ccc(OCC(O)CN3C(=O)CNC3=O)cc12 (centres unmarked),2.2%
13,O=C(CSc1nc2ccccc2[nH]1)Nc1ccccc1F,-10.1%
14,O=CN(CCN(C=O)CN1CCCCC1)CN1CCCCC1,14.9%
15,COCCN(C(=O)CCCC(=O)Nc1ccccn1)C(C(=O)NC1CCCCC1)c1ccc(C)cc1 (centres unmarked),-17.7%
16,Cl.O=C(c1ccccc1)N1CCN(CC(O)COCC2CC=CCC2)CC1 (centres unmarked),-24.3%
17,COc1cccc(N(C(=O)CNC(=O)c2ccco2)C(C(=O)NC2CCCCC2)c2ccncc2)c1 (centres unmarked),-7.66%
18,O=S(=O)(c1cccc2nonc12)N1CCN(c2cccc(Cl)c2)CC1,-4%
19,COc1cc(CC(=O)Nc2nc(-c3ccccc3)c(C(C)=O)s2)cc(OC)c1OC,12.8%
20,CC(=O)OC1COC(N2CCc3cc([N+](=O)[O-])ccc32)C(OC(C)=O)C1OC(C)=O (centres unmarked),2.87%
21,COc1cc(OC)cc(-c2nnc(Nc3nc4c(F)cccc4s3)o2)c1,11.8%
22,CC(=O)n1cc(C=C2C(=O)NC(=O)NC2=O)c2ccccc21,-14.7%

row,Compound,"hERG current change (%, negative = inhibition) at 10uM"
1,COC(=O)c1ccccc1NC(=O)c1ccc(COc2ccc(C)c(C)c2)o1,11.9%
2,CCOC(=O)c1ccc(N/C=C/C(=O)c2ccc(OC)c(OC)c2)cc1,6.32%
3,C/C(=N\Nc1nc2ccccc2[nH]1)c1cc2ccccc2o1,-1.05%
4,COc1ccc(-c2cc(C(F)(F)F)nc(N3CCN(C)CC3)n2)cc1OC,-18.6%
5,Cc1cccc(NC(=O)CSc2nnc(Cn3cnc4ccccc43)o2)c1,-9.07%
6,C#CCSc1nnc(C)c(C)n1,1.4%
7,O=C1CN(CC(=O)Nc2ccc(SC(F)F)cc2)CCN1,-32.6%
8,CN1CCN(c2ccc(NC(=O)c3cc(S(N)(=O)=O)ccc3N3CCOCC3)cc2)CC1,-0.0337%
9,O=C(/C=C/c1cccc([N+](=O)[O-])c1)OCC(=O)c1ccccc1,20.7%
10,O=C(COc1c(Cl)cc(Cl)cc1Cl)c1ccc(Cl)cc1,2.92%
11,O=C1COc2ccc(C(=O)COC(=O)CNC(=O)c3ccccc3)cc2N1,-4.81%
12,Cc1ccc(C(=O)OCC(=O)Nc2ccc3[nH]c(=O)[nH]c3c2)o1,-1.47%
13,Cc1cc(C(=O)Nc2ccc3c(c2)CCC3)ccc1[N+](=O)[O-],6.06%
14,COc1ccc(-c2c(-c3cc(OC)cc(OC)c3)n(C)c3ccc(-c4ccc5[nH]ccc5c4)cc23)cc1,11.3%
15,Cc1ccc(NC(=O)NCC(c2ccccc2)N(C)C)cc1 (centres unmarked),12.4%
16,O=C(NCC1CCCCC1)C1CCN(C(=O)NC2CCCCC2)CC1,14%
17,COCc1c(Br)c(C)nc(OCC(=O)O)c1C#N,13.4%
18,O=C(O)c1cccc(S(=O)(=O)N2CCCC(c3nc4c(nnn4Cc4ccc(F)cc4)c(=O)[nH]3)C2)c1 (centres unmarked),-15.3%
19,CN1CCN(CCCNC(=O)c2ccc3c(=O)n(CCc4ccccc4)c(=O)[nH]c3c2)CC1,15.3%
20,CN1CCN(Cc2ccc3ccccc3c2)CC1,17.9%
